Out of some 360,000 compounds screened, about 6,000 (1.7%) were called active. Inconclusive results, whose numbers are uncertain, are shown with a selection of clear calls. Calls follow the shape of the dose curve; as a rule, active = well fitted cell-killing curve with a large enough effect; inconclusive = small, poorly fitted or top-dose-only effect, or effect the other way; inactive = flat fitted curve, though single readings scatter. No potency is given beside an inconclusive call; the fits are too rough.
Experiment: qHTS for induction of synthetic lethality in tumor cells producing 2HG: qHTS for the HT-1080-NT fibrosarcoma cell line;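 also: NT is the 2HG producing partner of a matched IDH1 knockdown line; nearly all actives have a fitted effect of over 55% in size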;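 as to activity, negative = less viability: 0% = DMSO-treated cells and -100% = media-only wells without cells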
Details: HT-1080-NT fibrosarcoma viability, CellTiter-Glo ATP luminescence, 48 h; activity, negative = less viability: at 46.1 µM (top of the series) unless noted
Method in brief: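 Fibrosarcoma NT cells, 750 per well in 5% FBS RPMI, were exposed to compound for 48 hours. Viability: CellTiter-Glo luminescence.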
With `COc1ccc(CCN(C)CC(=O)Nc2cc(C)nc3ccccc23)cc1OC` the Potency was “inactive”. With `CC1CCCN(C(=O)CCCn2c(=S)[nH]c3ccccc3c2=O)C1` (centres undefined) the Potency was “inactive”. With `CC1(C)CC2CC(C)(CN2S(=O)(=O)c2ccc(N)cc2)C1` (centres undefined) the Potency was “inactive”. With `Cc1ccc(C(=O)Nc2ccccc2Cl)cc1` the Potency was “inactive”. For `Cc1cccc(C(=O)NC(=S)Nc2ccc(Cc3ccncc3)cc2)c1`, the Potency was inconclusive [cytotoxic, single point]. In the case of `Cc1cccc2cc(CN(Cc3cccs3)Cc3nnnn3Cc3ccccc3)c(=O)[nH]c12`, the Potency is reported as inconclusive [cytotoxic, single point]. For `COc1ccc(C(NC(=O)C2CCN(CCCc3ccccc3)CC2)c2cccs2)cc1` (centres undefined), the Potency was inconclusive [cytotoxic, single point]. For `COc1cccc(Nc2nc(-c3ccccc3)nc3ccccc23)c1`, the Potency was inconclusive [cytotoxic, single point]. For `Cc1ccc(C2=CC(c3ccc(C)cc3)n3ncnc3N2)cc1` (centres undefined), the Potency was inconclusive [rising, partial curve]. With `CS(=O)(=O)N1CCC(c2noc(-c3ccc(C(F)(F)F)cc3)n2)CC1` the Potency was “inactive”. With `CCC(Oc1ccccc1)C(=O)NCCOC` (centres undefined) the Potency was “inactive”. In the case of `CC(C)(C)c1ccc(/C=C(\c2nc3ccccc3[nH]2)S(=O)(=O)c2ccccc2)cc1`, the Potency is reported as active: 6.51 µM. For `CC(C)CCN(C(=S)Nc1cccc(F)c1)C(C)c1cccs1` (centres undefined), the Potency was “inactive”. For `COc1cccc(/C=N/Nc2snc(SC)c2C#N)c1O`, the Potency was inconclusive [cytotoxic, partial curve, poor fit]. In the case of `CCOC(=O)c1c(C)n(-c2ccc(C)cc2)c2ccc(OCC(O)CNCC3CCCO3)cc12` (centres undefined), the Potency is reported as inconclusive [cytotoxic, single point]. For `O=C(CN1CCOCC1)N1CCc2ccccc2C(c2ccccc2)C1` (centres undefined), the Potency was “inactive”. For `O=c1ccnc(Nc2ccc([N+](=O)[O-])cc2)[nH]1`, the Potency was inconclusive [cytotoxic, partial curve, poor fit]. For `C=CCCc1ccc(C#N)c(SCc2c(C(=O)OCC)c3cc(OC(C)=O)c(Br)cc3n2C)n1`, the activity, negative = less viability was inconclusive: -32.6% [cytotoxic]. With `Cc1ccc(NC(=O)Cc2nn(C)c(=O)c3ccccc23)cc1F` the Potency was inconclusive [cytotoxic, single point]. In the case of `Cc1ccc2c(cnn2C(=O)CCCC(=O)NCc2ccc(Cl)cc2)c1`, the Potency is reported as inconclusive [cytotoxic, single point]. For `COC(=O)C1=C(C)N(c2ccc(OC)c(OC)c2)C(=O)C1`, the Potency was inconclusive [cytotoxic, single point]. For `O=C(N1CCN(c2ccccn2)CC1)N1c2ccccc2Sc2ccccc21`, the Potency was active: 0.891 µM. For `NS(=O)(=O)c1ccc(O)c(NC(=O)c2ccc([N+](=O)[O-])o2)c1`, the Potency was inconclusive [cytotoxic, single point]. In the case of `C=C(CN(C)C)C(=O)c1ccc(OC2OC(COC(C)=O)C(OC(C)=O)C(OC(C)=O)C2OC(C)=O)cc1` (centres undefined), the Potency is reported as inconclusive [cytotoxic, single point]. In the case of `CCOCCCNC(=O)c1cccc(OC2CCN(S(C)(=O)=O)CC2)c1`, the Potency is reported as “inactive”. For `COC(=O)c1ccc(CSc2nnc(NC(=O)c3cc4c(s3)CCCC4)s2)cc1`, the Potency was inconclusive [cytotoxic, single point]. In the case of `Cc1sc(NC(=O)c2ccccc2)c(C(c2ccc(Cl)cc2)N2CCN(CCO)CC2)c1C` (centres undefined), the Potency is reported as inconclusive [cytotoxic, single point]. In the case of `C=CCC[C@@H](CCCCC)OC(=O)/C=C/[C@@H](O)[C@H](O)C[C@H](O)CC=C`, the Potency is reported as “inactive”. For `Cc1ccc(Cl)cc1N1CCN(C(=O)c2noc(C(C)C)c2[N+](=O)[O-])CC1`, the Potency was inconclusive [cytotoxic, partial curve, poor fit]. With `CN(C)CCCNC(=O)c1ccc(CN(c2ccccc2)S(C)(=O)=O)cc1` the Potency was “inactive”. In the case of `Cc1nnc(NC(=O)c2ccc(F)c(S(=O)(=O)N3CCCCC3)c2)s1`, the Potency is reported as “inactive”. For `Cc1cccc(OCCc2c(C)[nH]c(=S)[nH]c2=O)c1`, the Potency was inconclusive [cytotoxic, partial curve]. For `CCn1c(C(=O)O)c(CC(=O)Nc2cccc(C(F)(F)F)c2)c2ccccc21`, the Potency was “inactive”. For `CC(=O)CC1c2cc(F)ccc2C=C(c2ccsc2)N1c1ccc(-c2ccc(C(N)=O)cc2)cc1` (centres undefined), the Potency was inconclusive [cytotoxic, partial curve, poor fit]. With `C=C(C)COc1ccc(-c2nc(N)ncc2Oc2ccccc2OC)c(O)c1` the Potency was inconclusive [cytotoxic, single point]. With `CCCc1ccc2oc(C(=O)NCCCN3CCOCC3)c(C)c2c1` the Potency was inconclusive [cytotoxic, single point]. In the case of `COC(=O)c1[nH]c2ccc(C)cc2c1NC(=O)CCN1CCN(Cc2ccc3c(c2)OCO3)CC1`, the Potency is reported as inconclusive [cytotoxic, single point]. With `C=Cc1ccc(CC2(C)C(=O)Nc3ccc(-c4cccnc4)cc32)cc1` (centres undefined) the Potency was inconclusive [cytotoxic, single point]. With `CCCOc1ccc(C(=O)NNC(=S)NC(=O)c2ccco2)cc1` the Potency was inconclusive [cytotoxic, single point]. For `NC(Cc1ccccc1)c1csc(Nc2nccc(C(F)(F)F)n2)n1` (centres undefined), the Potency was inconclusive [cytotoxic, single point]. With `C#CCOCCOCCOCCNc1nc(N2CCOCC2)nc(N2CCN(C(=O)[C@H](C)n3cc(CCC(=O)O)nn3)CC2)n1` the Potency was “inactive”. For `O=C(NCC(c1cccs1)N1CCOCC1)c1ccc(Br)o1` (centres undefined), the Potency was inconclusive [cytotoxic, single point]. In the case of `CCNC(=O)C1(C)CCCN(Cc2csc(-c3ccccc3)n2)C1` (centres undefined), the activity, negative = less viability is reported as inconclusive: 11.3%. In the case of `CCOC(=O)Oc1c(OC)cc(C(=O)O[C@@H]2C[C@@H]3CN4CCc5c([nH]c6cc(OC)ccc56)[C@H]4C[C@@H]3[C@H](C(=O)OC)[C@H]2OC)cc1OC`, the Potency is reported as active: 14.6 µM. With `O=C(c1ccc(COc2ccc(Br)cc2)o1)N1N=C(C(F)F)CC1(O)C(F)F` (centres undefined) the Potency was inconclusive [cytotoxic, single point]. With `O=C(/C=C\Nc1ccccn1)c1ccc(Cl)cc1` the Potency was “inactive”. With `O=C(N/N=C/c1cccc(O)c1)c1ccc(COc2ccccc2Br)cc1` the Potency was “inactive”. For `COC(=O)CCCn1c(C)cc(C(=O)CCl)c1C`, the Potency was active: 20.6 µM. In the case of `Cc1onc(-c2ccccc2Cl)c1C(=O)Nc1ccc(S(=O)(=O)NCC2CCCO2)cc1` (centres undefined), the Potency is reported as inconclusive [cytotoxic, partial curve]. With `CCN(CC)CCn1c(=S)[nH]c2cc(Cl)ccc2c1=O` the Potency was active: 17.8 µM. For `O=c1[nH]c2ccc(Cl)cc2c(-c2ccccc2)c1SC(=S)N1CCOCC1`, the Potency was active: 16.4 µM. With `COc1ccc(C(=O)c2c(NC(C)=O)sc3c2CCN(C(=O)OC(C)(C)C)C3)cc1` the Potency was inconclusive [cytotoxic, partial curve]. With `CCOC(=O)NC(=O)CSc1ccc(C)cc1C` the Potency was inconclusive [rising, single point]. For `COc1cc(-c2cccc([C@H]3[C@@H]4C=CC[C@@H](C)[C@@H]4C(=O)N3Cc3ccccc3)c2)cc(OC)c1OC`, the Potency was inconclusive [cytotoxic, single point]. In the case of `O=C(Nc1ccc([N+](=O)[O-])cc1)c1cccc(S(=O)(=O)Nc2cccnc2)c1`, the Potency is reported as inconclusive [cytotoxic, single point]. With `O=C(NNc1c2ccccc2nc2ccccc12)c1ccccc1O` the Potency was inconclusive [cytotoxic, single point]. For `O=C(Cc1ccccc1)Nc1ccc(-c2nnc(-c3ccco3)o2)cc1`, the Potency was inconclusive [cytotoxic, single point]. In the case of `COc1ccccc1Cc1c(-c2cccc(Br)c2)nc2ccc(Cl)cn12`, the Potency is reported as inconclusive [cytotoxic, single point]. With `N#Cc1nc(-c2cccc3ccccc23)oc1NCCN1CCCCC1` the Potency was inconclusive [cytotoxic, single point]. In the case of `COc1cccc(NC(=O)CN(C)C(=O)c2ccc(S(=O)(=O)Nc3ccccc3F)cc2)c1`, the Potency is reported as “inactive”. For `C#Cc1ccc([C@@H]2C=C(C(=O)OCC=C)O[C@H](OCc3ccc(CO)cc3)C2)cc1`, the Potency was “inactive”. For `O=C1CSC(c2cn(-c3ccccc3)nc2-c2ccccc2)N1Cc1ccco1` (centres undefined), the Potency was inconclusive [cytotoxic, single point]. For `Nc1nc(CCl)nc(Nc2cccc3ccccc23)n1`, the Potency was active: 0.517 µM. With `Cc1cccc(NC(=O)CSc2nnc(CN3CCOCC3)n2C)c1C` the Potency was “inactive”. With `CC(OC(=O)c1ccc(O)cc1)C(=O)Nc1cc(C(F)(F)F)ccc1Cl` (centres undefined) the Potency was inconclusive [cytotoxic, single point]. With `O=C(Nc1ccc([N+](=O)[O-])cn1)c1ccc(Br)o1` the Potency was inconclusive [rising, full curve, poor fit]. With `CCc1nc2c(OCC3CCCCC3)cccn2c1N(C)C(=O)c1ccccc1F` the Potency was inconclusive [rising, full curve, poor fit]. With `Nc1nc(Cl)c(C=O)c(N2CCCCC2)n1` the Potency was inconclusive [cytotoxic, single point]. With `C=C(C)CSc1nc(N)c2c3c(sc2n1)CCC3` the Potency was inconclusive [cytotoxic, single point].
Potency is read from the fitted curve at half-maximal effect; tags tell the direction and shape of the fitted curve.
